In the BET-seq Pho4 binding data (Le et al. 2018):
The list shows a part of the results. Values were computed here from the reads of four pooled replicates and scatter widely.

target: T1, Pho4 (S. cerevisiae) (UniProt P07270); assay: relative binding free energy (BET-seq); higher = weaker binding; settings: reference: library average
T1 sequence: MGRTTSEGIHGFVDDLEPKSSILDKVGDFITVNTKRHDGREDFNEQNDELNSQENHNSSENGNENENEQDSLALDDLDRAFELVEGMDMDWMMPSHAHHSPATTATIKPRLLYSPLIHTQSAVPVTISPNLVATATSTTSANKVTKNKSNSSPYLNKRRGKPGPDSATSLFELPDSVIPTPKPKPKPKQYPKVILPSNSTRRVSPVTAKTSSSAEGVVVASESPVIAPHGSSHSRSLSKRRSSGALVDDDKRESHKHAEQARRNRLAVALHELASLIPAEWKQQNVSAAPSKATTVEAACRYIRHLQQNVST

| Sequence | relative binding free energy [kcal/mol] |
| --- | --- |
| ATTTTCACGTGGGTCA | 0.24 |
| TAGTGCACGTGATGTA | 0.09 |
| GGGAGCACGTGTTAGA | -0.09 |
| TATGACACGTGGGTTG | -0.06 |
| ATTATCACGTGAGTGA | 0.24 |
| AGTCTCACGTGGTGAG | 0.24 |
| TTTGACACGTGGGATG | -0.07 |
| TTTGTCACGTGTTCGC | 0.07 |
| TGAAGCACGTGAATTT | 0.5 |
| GTTAACACGTGGTCAG | 0.05 |
| TTCGTCACGTGTAGTT | 0.1 |
| ATATTCACGTGAAGTA | 0.41 |
| TGGTCCACGTGTATAT | -0.05 |
| TATGTCACGTGTGTAT | 0.15 |
| TTTTCCACGTGGTGGA | -0.01 |
| ATAAACACGTGAGTTG | 0.08 |
| GTTGGCACGTGTCTTT | 0.03 |
| ATTAGCACGTGGAGTT | 0.12 |
| GTGGGCACGTGTGGTC | 0 |
| TAAGGCACGTGGCATG | -0.19 |
| ATGAGCACGTGTATGA | -0.05 |
| GAAGTCACGTGGCGGG | -0.1 |
| AGAGACACGTGGGGTA | -0.15 |
| CTAGGCACGTGTTGCG | -0.13 |
| GTATTCACGTGTGCGC | 0.24 |

| Sequence | relative binding free energy [kcal/mol] |
| --- | --- |
| CACGTCACGTGGGTTT | -0.08 |
| TTTCTCACGTGTTCGT | 0.27 |
| TTGGTCACGTGTGCAC | 0.12 |
| AGTTGCACGTGATGTG | 0.07 |
| TTCATCACGTGGATTT | 0.3 |
| GAGTCCACGTGGGTCG | 0.08 |
| GTAAACACGTGGAGTA | 0.14 |
| TTGAGCACGTGGGAGA | -0.12 |
| TTGCTCACGTGAGGGC | 0.31 |
| GTGTGCACGTGAGTTG | 0.3 |
| GGATACACGTGGTGTT | 0 |
| TGGTTCACGTGAAGTG | 0.39 |
| TATGGCACGTGGTTTA | -0.08 |
| GTGAGCACGTGAGTAT | -0.06 |
| TAATTCACGTGTTTGG | 0.21 |
| ATCGGCACGTGTTGTC | 0.09 |
| TGTGACACGTGTGCTG | -0.1 |
| TGTATCACGTGTCGAT | 0.06 |
| AAGGGCACGTGCATGG | -0.16 |
| ACGTTCACGTGTATGT | 0.21 |
| GGAGGCACGTGTTGAT | -0.06 |
| ATTTGCACGTGGCAGG | -0.12 |
| TGGGGCACGTGTGCTC | -0.08 |
| GTGTTCACGTGAGCGC | 0.25 |
| AGGGTCACGTGGGCGA | -0.01 |

| Sequence | relative binding free energy [kcal/mol] |
| --- | --- |
| TTGCTCACGTGGTAGT | 0.25 |
| TAATGCACGTGGAGTA | -0.12 |
| TAGAACACGTGAAGTG | 0.24 |
| GTGAGCACGTGTTGCT | -0.13 |
| TGTCACACGTGGGTGC | -0.09 |
| GTTCACACGTGAGGTG | 0.32 |
| TTGGACACGTGGTTCA | 0 |
| AGTTTCACGTGGGTCA | 0.09 |
| GGAATCACGTGGACTG | 0.42 |
| GTATTCACGTGCGGGG | 0.26 |
| TTGTGCACGTGTTAAT | -0.03 |
| GGTCACACGTGGGGCT | 0.12 |
| TGTGCCACGTGGGCCG | -0.23 |
| CGGTTCACGTGGTTGC | 0.33 |
| GTTGTCACGTGGAGAA | 0.25 |
| TGGTGCACGTGGCTAG | -0.16 |
| GGGTACACGTGTCGTT | 0.1 |
| TGATCCACGTGTGGGC | 0.06 |
| AGTTACACGTGCGTGG | -0.07 |
| GGCAGCACGTGATTTG | 0.22 |
| AGGGTCACGTGTAGTT | 0.17 |
| TTAGTCACGTGTGCGG | 0.02 |
| TTGTACACGTGGTCTA | -0.07 |
| AAAAGCACGTGAAAGG | 0.29 |
| GTCTACACGTGCGGGG | 0.04 |

| Sequence | relative binding free energy [kcal/mol] |
| --- | --- |
| TAGGTCACGTGGACGT | 0.04 |
| CTAGGCACGTGATGGT | 0.02 |
| ATCTTCACGTGCTGGG | 0.21 |
| TGCGTCACGTGTGTTC | 0.02 |
| CGGAGCACGTGGAGGT | -0.1 |
| GTGGCCACGTGTAGCG | 0.03 |
| GATGACACGTGTGATG | 0.23 |
| AGTGCCACGTGGGGCT | -0.19 |
| AGGGGCACGTGAAGAA | 0.08 |
| ATCATCACGTGTGGTT | 0.28 |
| GGTTACACGTGAATGC | 0.46 |
| GGGTACACGTGGATTG | 0.03 |
| CGGGTCACGTGGCTAG | 0.18 |
| TATGACACGTGTGCGT | -0.13 |
| CTTTACACGTGAGTAT | 0.29 |
| AATCGCACGTGTGTAG | 0.02 |
| AGCGGCACGTGTGGTA | -0.04 |
| CTTTTCACGTGGTGCG | 0.15 |
| TATGCCACGTGTAAGG | -0.05 |
| GGGACCACGTGGGATT | 0.03 |
| TATTGCACGTGTGCAG | 0.12 |
| AGTTTCACGTGATCTA | 0.27 |
| TCGATCACGTGGTTAG | 0.08 |
| AGGGACACGTGGGTCT | -0.14 |
| CGGCGCACGTGGGTGT | -0.43 |

| Sequence | relative binding free energy [kcal/mol] |
| --- | --- |
| GGAGACACGTGGTTCG | 0.12 |
| ATGGGCACGTGTTTCG | -0.06 |
| GTTAGCACGTGAGGTG | 0.19 |
| GGTGTCACGTGCTCTG | -0.02 |
| TTTTGCACGTGTGAGG | 0.19 |
| ATCTGCACGTGTAAGT | 0.16 |
| ATTATCACGTGACGGG | 0.33 |
| AAAGTCACGTGAGCGT | 0.3 |
| GTAGGCACGTGATAAG | 0.13 |
| AGGATCACGTGCTTTT | 0.08 |
| CGTAACACGTGAGGTG | 0.12 |
| TTGGGCACGTGTACGC | -0.04 |
| TCTATCACGTGGTGGT | 0.07 |
| TGGGGCACGTGTGGCG | -0.05 |
| TGGAGCACGTGGTGTC | -0.1 |
| AAAGACACGTGTTGTA | 0.05 |
| TTAGGCACGTGGGATC | -0.19 |
| AGAATCACGTGTTTGA | 0.26 |
| TTTGTCACGTGGAAAA | 0.32 |
| GTCGTCACGTGGGCCG | 0.03 |
| TATAACACGTGCGTAT | -0.06 |
| CGCAGCACGTGGTGGT | -0.28 |
| ATGACCACGTGGTTTG | -0.16 |
| TAGAGCACGTGTATTT | -0.16 |
| TGGGGCACGTGGGAGG | -0.13 |

| Sequence | relative binding free energy [kcal/mol] |
| --- | --- |
| TTTTTCACGTGGAGAT | 0.23 |
| TATTGCACGTGAAGGC | 0.22 |
| GGCAGCACGTGGGTTA | -0.1 |
| GTGAGCACGTGAAGTG | 0.18 |
| AGATGCACGTGTCTGT | 0.01 |
| TTCTGCACGTGATGAT | 0.09 |
| TAGTGCACGTGGGGAT | -0.11 |
| CAGGGCACGTGGTATA | -0.2 |
| GGATGCACGTGGGGGA | -0.04 |
| GAATTCACGTGTGTTC | 0.32 |
| ATTGGCACGTGAGAAT | 0.09 |
| TGTATCACGTGTATTC | 0.15 |
| TCTAGCACGTGGGGGG | -0.18 |
| GTTTGCACGTGTTTTT | 0.15 |
| TTAAGCACGTGAGGCT | 0.02 |
| GAGCGCACGTGGGTGA | -0.18 |
| TAGGGCACGTGAGGTG | 0.1 |
| TTAAGCACGTGCGTTG | 0 |
| GGCATCACGTGCAAGG | 0.32 |
| TGATTCACGTGTCCGG | 0.38 |
| GTGGCCACGTGGATTT | 0.04 |
